Experimental data published in patent US20220249679A1 (MITSUBISHI TANABE PHARMA, published 2022).
Positions count from the first letter of the chain named. Read-outs that look alike come from different tables or passages of the source.

What was measured:
huFGFR3c-Fc [1] = biological target: T1, huFGFR3c-Fc (human, UniProt P22607 23-375); assay: BIAcore, Fynomer captured on 9E10, huFGFR3c-Fc injected, no FGF1; apparent KD
T1 construct: also called recombinant human FGFR3c-Fc
T1 sequence: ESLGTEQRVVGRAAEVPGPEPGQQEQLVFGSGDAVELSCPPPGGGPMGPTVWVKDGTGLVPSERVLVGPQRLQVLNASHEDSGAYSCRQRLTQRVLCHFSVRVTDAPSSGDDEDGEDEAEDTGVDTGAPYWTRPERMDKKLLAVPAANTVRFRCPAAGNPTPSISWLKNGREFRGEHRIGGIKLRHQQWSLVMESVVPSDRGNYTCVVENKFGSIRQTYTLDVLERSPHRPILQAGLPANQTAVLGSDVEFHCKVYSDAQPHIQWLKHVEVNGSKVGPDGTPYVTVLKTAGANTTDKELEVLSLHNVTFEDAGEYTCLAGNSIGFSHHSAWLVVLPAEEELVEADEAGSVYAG

huD2-Fc [2] = biological target: T2, huD2-Fc (human, UniProt P22607 151-244); assay: ELISA on plate-coated antigen, Fynomer 200 nM with anti-myc 9E10, anti-mouse IgG-HRP
T2 construct: domain: D2; also called huFGFR3-D2; human FGFR3c D2 domain
T2 sequence: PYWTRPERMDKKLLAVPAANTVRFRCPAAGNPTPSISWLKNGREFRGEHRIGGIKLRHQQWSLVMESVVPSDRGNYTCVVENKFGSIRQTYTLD

huD1-Fc [3] = biological target: T3, huD1-Fc (human, UniProt P22607 23-126); assay: as above
T3 construct: domain: D1; also called huFGFR3-D1; hFGFR3-D1
T3 sequence: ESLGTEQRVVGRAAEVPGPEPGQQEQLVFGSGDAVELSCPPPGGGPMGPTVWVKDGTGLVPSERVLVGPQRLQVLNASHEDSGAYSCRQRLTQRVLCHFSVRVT

cynoFGFR3c-Fc [4] = biological target: T4, cynoFGFR3c-Fc (cynomolgus monkey, UniProt A0A2K5V1U5 23-376); assay: BIAcore T200, Fynomer captured on 9E10, FGFR3-Fc injected; apparent KD
T4 construct: also called cyFGFR3c-Fc; cyFGFR3c
T4 sequence: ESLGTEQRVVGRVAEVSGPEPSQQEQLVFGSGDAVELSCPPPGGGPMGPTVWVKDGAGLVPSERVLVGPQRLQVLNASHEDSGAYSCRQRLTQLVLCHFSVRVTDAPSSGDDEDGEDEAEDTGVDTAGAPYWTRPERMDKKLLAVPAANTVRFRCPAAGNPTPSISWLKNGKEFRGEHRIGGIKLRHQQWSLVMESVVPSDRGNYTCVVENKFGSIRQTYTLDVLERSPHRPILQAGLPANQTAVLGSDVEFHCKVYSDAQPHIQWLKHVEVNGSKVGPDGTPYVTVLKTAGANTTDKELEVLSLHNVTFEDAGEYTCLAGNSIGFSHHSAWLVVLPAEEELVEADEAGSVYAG

huFGFR3c-Fc [5] = biological target: T1, huFGFR3c-Fc; assay: as above
huFGFR3b-Fc [6] = biological target: T5, huFGFR3b-Fc (human); assay: as above
T5 construct: also called recombinant human FGFR3b-Fc
T5 chain: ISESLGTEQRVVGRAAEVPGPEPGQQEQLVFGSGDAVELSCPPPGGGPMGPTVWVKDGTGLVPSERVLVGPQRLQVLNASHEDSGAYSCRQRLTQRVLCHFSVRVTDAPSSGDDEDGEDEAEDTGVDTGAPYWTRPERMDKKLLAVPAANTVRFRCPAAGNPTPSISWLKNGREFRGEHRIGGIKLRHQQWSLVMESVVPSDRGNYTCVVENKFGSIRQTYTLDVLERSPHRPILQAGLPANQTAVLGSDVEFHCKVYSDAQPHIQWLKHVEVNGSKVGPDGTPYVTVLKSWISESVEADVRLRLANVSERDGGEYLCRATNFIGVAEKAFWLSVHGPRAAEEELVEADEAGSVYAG

huFGFR3c-Fc [7] = biological target: T1, huFGFR3c-Fc; assay: BIAcore, Fynomer captured on 9E10, huFGFR3c-Fc injected in presence of 200 nM FGF1; apparent KD
huD2-Fc [8] = biological target: T2, huD2-Fc; assay: ELISA on plate-coated antigen, Fynomer 200 nM with anti-myc 9E10, anti-mouse IgG-HRP; remark: listed apart in the source
huD1-Fc [9] = biological target: T3, huD1-Fc; assay: as above; remark: listed apart in the source
huD2-Fc [10] = biological target: T2, huD2-Fc; assay: as above; remark: listed apart in the source
huD1-Fc [11] = biological target: T3, huD1-Fc; assay: as above; remark: listed apart in the source
huD2-Fc [12] = biological target: T2, huD2-Fc; assay: as above; remark: listed apart in the source
huD1-Fc [13] = biological target: T3, huD1-Fc; assay: as above; remark: listed apart in the source
huD2-Fc [14] = biological target: T2, huD2-Fc; assay: as above; remark: listed apart in the source
huD1-Fc [15] = biological target: T3, huD1-Fc; assay: as above; remark: listed apart in the source
huD2-Fc [16] = biological target: T2, huD2-Fc; assay: as above; remark: listed apart in the source
huD1-Fc [17] = biological target: T3, huD1-Fc; assay: as above; remark: listed apart in the source
cynoFGFR3c-Fc [18] = biological target: T4, cynoFGFR3c-Fc; assay: BIAcore; apparent KD
huFGFR3c-Fc [19] = biological target: T1, huFGFR3c-Fc; assay: BIAcore; apparent KD
huFGFR3b-Fc [20] = biological target: T5, huFGFR3b-Fc; assay: BIAcore; apparent KD
huFGFR3c-Fc [21] = biological target: T1, huFGFR3c-Fc; assay: BIAcore, in presence of 200 nM FGF1; apparent KD
huFGFR3c-Fc [22] = biological target: T1, huFGFR3c-Fc; assay: BIAcore, competition with FGF1 experiment, no FGF1; apparent KD
[23] = biological target: T6, hCD138 (ELISA of Table 29) (human, UniProt P18827 23-254, limits assumed); assay: hCD138 ELISA
T6 construct: also called human CD138
T6 sequence: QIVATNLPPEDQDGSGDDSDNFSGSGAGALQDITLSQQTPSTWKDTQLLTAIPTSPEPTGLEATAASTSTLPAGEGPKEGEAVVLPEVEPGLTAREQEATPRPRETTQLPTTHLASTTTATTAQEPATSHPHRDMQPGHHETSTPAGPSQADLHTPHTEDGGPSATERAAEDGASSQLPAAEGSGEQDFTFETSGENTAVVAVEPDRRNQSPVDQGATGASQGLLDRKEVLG

B1: FF44L65G12 (designed binder, not shown: small tags and cut ends)
chain: GVTLFVALYDYEVYGPTPMLSFHKGEKFQILRGGQGPYWEARSLTTGETGLIPSNYVAPVDSIQ
notes: Fynomer
For B1, which Kd (huFGFR3c-Fc [1]) is on record?
The Kd was 0.14 nM.

Does B1 bind (huD2-Fc [2])?
Result: no binding (tested: 200 nM)

Does B1 bind (huD1-Fc [3])?
Result: no binding (tested: 200 nM)

What about the Kd (cynoFGFR3c-Fc [4]) of the same binder?
Its Kd is 0.11 nM.

And the Kd (huFGFR3c-Fc [5])?
The Kd was 0.685 nM.

What about the Kd (huFGFR3b-Fc [6]) of the same binder?
The Kd was 0.69 nM.

What about the Kd (huFGFR3c-Fc [7]) of the same binder?
The Kd was 0.12 nM.

B2: FF2L4C3 (designed binder, not shown: small tags and cut ends)
chain: B1 chain with R32N, G33S, G34S, Q35E
notes: Fyn SH3-derived polypeptide (Fynomer) expressed in E. coli from pQE12; also called parental Fynomer
What does the source list for B2?
Kd (huFGFR3c-Fc [1]): 4 nM; Kd (cynoFGFR3c-Fc [4]): 5.9 nM; Kd (huFGFR3c-Fc [5]): 4.6 nM; Kd (huFGFR3b-Fc [6]): 4.7 nM; Kd (huFGFR3c-Fc [7]): 3.8 nM; binding result (huD2-Fc [8]): no binding (tested: 200 nM); binding result (huD1-Fc [9]): no binding (tested: 200 nM)

B3: FF43L65D5 (designed binder, not shown: small tags and cut ends)
chain: B1 chain with G33K, Q35K, T45A
notes: Fynomer
How did the Kd (huFGFR3c-Fc [1]) turn out when B3 was run?
The Kd was 0.06 nM.

What about the Kd (cynoFGFR3c-Fc [4]) of the same binder?
The Kd was 0.16 nM.

What about the Kd (huFGFR3c-Fc [5]) of the same binder?
Its Kd is 0.23 nM.

What about the Kd (huFGFR3b-Fc [6]) of the same binder?
Its Kd is 0.335 nM.

Does B3 bind (huD2-Fc [10])?
Result: no binding (tested: 200 nM)

Does B3 bind (huD1-Fc [11])?
Result: no binding (tested: 200 nM)

And the Kd (huFGFR3c-Fc [7])?
The Kd was 0.07 nM.

B4: FF44L65B7 (designed binder, not shown: small tags and cut ends)
chain: B1 chain with G33R, Q35S
notes: Fynomer
Which results are given for B4?
Kd (huFGFR3c-Fc [1]): 0.17 nM; Kd (cynoFGFR3c-Fc [4]): 0.26 nM; Kd (huFGFR3c-Fc [5]): 0.25 nM; Kd (huFGFR3b-Fc [6]): 0.1 nM; binding result (huD2-Fc [12]): no binding (tested: 200 nM); binding result (huD1-Fc [13]): no binding (tested: 200 nM); Kd (huFGFR3c-Fc [7]): 0.13 nM

B5: FF44L65G7 (designed binder, not shown: small tags and cut ends)
chain: B1 chain with Q35D
notes: Fynomer
With B5 as the binder, how does the Kd (huFGFR3c-Fc [1]) read?
Its Kd is 0.32 nM.

Does B5 bind (huD2-Fc [14])?
Result: no binding (tested: 200 nM)

Does B5 bind (huD1-Fc [15])?
Result: no binding (tested: 200 nM)

What about the Kd (cynoFGFR3c-Fc [4]) of the same binder?
Its Kd is 0.28 nM.

And the Kd (huFGFR3c-Fc [5])?
Its Kd is 0.335 nM.

What about the Kd (huFGFR3b-Fc [6]) of the same binder?
The Kd was 0.47 nM.

What about the Kd (huFGFR3c-Fc [7]) of the same binder?
The Kd was 0.23 nM.

B6: FF48L66G7 (designed binder, not shown: small tags and cut ends)
chain: B1 chain with R32K, Q35S
notes: Fynomer; also called FF48L66G7 (G7)
B6 was tested. Which Kd (huFGFR3c-Fc [1]) did it give?
Its Kd is 0.17 nM.

What about the Kd (cynoFGFR3c-Fc [4]) of the same binder?
Its Kd is 0.21 nM.

And the Kd (huFGFR3c-Fc [5])?
The Kd was 0.19 nM.

What about the Kd (huFGFR3b-Fc [6]) of the same binder?
The Kd was 0.26 nM.

And the Kd (huFGFR3c-Fc [7])?
The Kd was 0.13 nM.

Does B6 bind (huD2-Fc [16])?
Result: no binding (tested: 200 nM)

Does B6 bind (huD1-Fc [17])?
Result: no binding (tested: 200 nM)

B7: FF40L54A5 (designed binder, not shown: small tags and cut ends)
chain: GVTLFVALYDYEVMSTTALSFHKGEKFQILSQSPHGQYWEARSLTTGETGWIPSNYVAPVDSIQ
How did the Kd (cynoFGFR3c-Fc [18]) turn out when B7 was run?
The Kd was 0.16 nM.

What about the Kd (huFGFR3c-Fc [19]) of the same binder?
The Kd was 0.17 nM.

And the Kd (huFGFR3b-Fc [20])?
Its Kd is 0.17 nM.

What about the Kd (huFGFR3c-Fc [21]) of the same binder?
Its Kd is 0.23 nM.

What about the Kd (huFGFR3c-Fc [22]) of the same binder?
The Kd was 0.21 nM.

B8: hF6-LC-G7 (bispecific antibody, human IgG1, kappa)
heavy: QVQLVQSGAEVVKPGASVKLSCKASGYTFTSYYLYWVKKAPGQGLDWIGEIYPRSGGTNINEKFLSRVTLTADTSTSTAYLELSSLTSEDTAVYYCTRSLLYWGQGTTLTVSS[letters of human IgG1 constant region left out]
light: DVVMTQTPLSLSVTPGQPASISCKSSQSLLASDGKTYLNWLLQRPGQSPKRLIYLVSKLDSGVPNRFSGSGSGTDFTLQISRVEAEDVGLYYCWQGAHFPFTFGSGTKLEIKRTVAAPSVFIFPPSDEQLKSGTASVVCLLNNFYPREAKVQWKVDNALQSGNSQESVTEQDSKDSTYSLSSTLTLSKADYEKHKVYACEVTHQGLSSPVTKSFNRGECGGGGSGGGGSGGGGSGVTLFVALYDYEVYGPTPMLSFHKGEKFQILKGGSGPYWEARSLTTGETGLIPSNYVAPVDSIQ
notes: IgG1/kappa
With B8 as the binder, how does the EC50 [23] read?
Its EC50 is 0.98 nM.

B9: hF6-LN-G7 (bispecific antibody, human IgG1, kappa)
heavy: B8 heavy
light: GVTLFVALYDYEVYGPTPMLSFHKGEKFQILKGGSGPYWEARSLTTGETGLIPSNYVAPVDSIQGGGGSGGGGSGGGGSDVVMTQTPLSLSVTPGQPASISCKSSQSLLASDGKTYLNWLLQRPGQSPKRLIYLVSKLDSGVPNRFSGSGSGTDFTLQISRVEAEDVGLYYCWQGAHFPFTFGSGTKLEIKRTVAAPSVFIFPPSDEQLKSGTASVVCLLNNFYPREAKVQWKVDNALQSGNSQESVTEQDSKDSTYSLSSTLTLSKADYEKHKVYACEVTHQGLSSPVTKSFNRGEC
notes: IgG1/kappa
B9 was tested. Which EC50 [23] did it give?
Its EC50 is 1.07 nM.
